According to the supplement of paper PMC8728848:
Some of the results follow.

Key:
Experiment in all cases: glycan array binding signal (z-score within array); higher = stronger binding
Settings in all cases: glycan notation: IUPAC condensed, linker removed
[1] = target: Man(a1-2)Man(a1-3)[Man(a1-2)Man(a1-6)]Man
Outline: (§1)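 Glycan array data came from 3228 arrays in the Consortium for Functional Glycomics database, and only arrays with an available protein sequence were kept. Glycan names were put into IUPAC-condensed notation, and columns mapping to the same glycan were averaged. The binding signal is a within-array Z-score, averaged across arrays of one protein sequence run at different concentrations or buffers and across linkers. A negative Z-score can be read as non-binding.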

[2] = target: Man(a1-2)Man(a1-3)[Man(a1-2)Man(a1-6)]Man(a1-6)[Man(a1-2)Man(a1-2)Man(a1-3)]Man
Outline: as §1

[3] = target: Man(a1-2)Man(a1-3)[Man(a1-2)Man(a1-6)]Man(a1-6)[Man(a1-2)Man(a1-2)Man(a1-3)]Man(b1-4)GlcNAc(b1-4)GlcNAc
Outline: as §1

[4] = target: Man(a1-2)Man(a1-3)[Man(a1-6)]Man(a1-6)[Man(a1-2)Man(a1-3)]Man(b1-4)GlcNAc(b1-4)GlcNAc
Outline: as §1

[5] = target: Man(a1-2)Man(a1-6)[Man(a1-3)]Man(a1-6)[Man(a1-2)Man(a1-2)Man(a1-3)]Man
Outline: as §1

[6] = target: Man(a1-2)Man(a1-6)[Man(a1-3)]Man(a1-6)[Man(a1-2)Man(a1-2)Man(a1-3)]Man(b1-4)GlcNAc(b1-4)GlcNAc
Outline: as §1

Man(a1-3)[Man(a1-6)]Man = target: Man(a1-3)[Man(a1-6)]Man
Outline: as §1

[7] = target: Man(a1-3)[Man(a1-6)]Man(a1-6)[Man(a1-2)Man(a1-3)]Man(b1-4)GlcNAc(b1-4)GlcNAc
Outline: as §1

[8] = target: Man(a1-3)[Man(a1-6)]Man(a1-6)[Man(a1-3)]Man
Outline: as §1

[9] = target: Man(a1-3)[Man(a1-6)]Man(a1-6)[Man(a1-3)]Man(b1-4)GlcNAc(b1-4)GlcNAc
Outline: as §1

[10] = target: Man(a1-3)[Man(a1-6)]Man(b1-4)GlcNAc(b1-4)GlcNAc
Outline: as §1

[11] = target: Man(a1-3)[Man(a1-6)]Man(b1-4)GlcNAc(b1-4)[Fuc(a1-6)]GlcNAc
Outline: as §1

Man(a1-6)Man = target: Man(a1-6)Man
Outline: as §1

Man(b1-4)GlcNAc = target: Man(b1-4)GlcNAc
Outline: as §1

MurNAc(b1-4)GlcNAc = target: MurNAc(b1-4)GlcNAc
Outline: as §1

Neu5Ac(a2-3)Gal = target: Neu5Ac(a2-3)Gal
Outline: as §1

[12] = target: Neu5Ac(a2-3)Gal(b1-3)GalNAc
Outline: as §1

[13] = target: Neu5Ac(a2-3)Gal(b1-3)GalNAc(b1-3)Gal(a1-4)Gal(b1-4)Glc
Outline: as §1

[14] = target: Neu5Ac(a2-3)Gal(b1-3)GalNAc(b1-4)Gal(b1-4)Glc
Outline: as §1

[15] = target: Neu5Ac(a2-3)Gal(b1-3)GalNAc(b1-4)[Neu5Ac(a2-3)]Gal(b1-4)Glc
Outline: as §1

[16] = target: Neu5Ac(a2-3)Gal(b1-3)GalNAc(b1-4)[Neu5Ac(a2-8)Neu5Ac(a2-3)]Gal(b1-4)Glc
Outline: as §1

[17] = target: Neu5Ac(a2-3)Gal(b1-3)GalNAc6S
Outline: as §1

[18] = target: Neu5Ac(a2-3)Gal(b1-3)GlcNAc
Outline: as §1

[19] = target: Neu5Ac(a2-3)Gal(b1-3)GlcNAc(b1-2)Man
Outline: as §1

[20] = target: Neu5Ac(a2-3)Gal(b1-3)GlcNAc(b1-2)Man(a1-3)[GlcNAc(b1-4)][Neu5Ac(a2-3)Gal(b1-3)GlcNAc(b1-2)Man(a1-6)]Man(b1-4)GlcNAc(b1-4)GlcNAc
Outline: as §1

[21] = target: Neu5Ac(a2-3)Gal(b1-3)GlcNAc(b1-2)Man(a1-3)[Neu5Ac(a2-3)Gal(b1-3)GlcNAc(b1-2)Man(a1-6)]Man(b1-4)GlcNAc(b1-4)GlcNAc
Outline: as §1

[22] = target: Neu5Ac(a2-3)Gal(b1-3)GlcNAc(b1-2)[Neu5Ac(a2-3)Gal(b1-3)GlcNAc(b1-4)]Man(a1-6)[Neu5Ac(a2-3)Gal(b1-3)GlcNAc(b1-2)Man(a1-3)]Man(b1-4)GlcNAc(b1-4)GlcNAc
Outline: as §1

[23] = target: Neu5Ac(a2-3)Gal(b1-3)GlcNAc(b1-3)Gal(b1-3)GlcNAc
Outline: as §1

[24] = target: Neu5Ac(a2-3)Gal(b1-3)GlcNAc(b1-3)Gal(b1-4)GlcNAc
Outline: as §1

[25] = target: Neu5Ac(a2-3)Gal(b1-3)GlcNAc(b1-3)GalNAc
Outline: as §1

[26] = target: Neu5Ac(a2-3)Gal(b1-3)GlcNAc(b1-6)GalNAc
Outline: as §1

[27] = target: Neu5Ac(a2-3)Gal(b1-3)GlcNAc6S
Outline: as §1

[28] = target: Neu5Ac(a2-3)Gal(b1-3)[Fuc(a1-4)]GlcNAc
Outline: as §1

[29] = target: Neu5Ac(a2-3)Gal(b1-3)[Fuc(a1-4)]GlcNAc(b1-3)Gal(b1-3)[Fuc(a1-4)]GlcNAc
Outline: as §1

[30] = target: Neu5Ac(a2-3)Gal(b1-3)[Fuc(a1-4)]GlcNAc(b1-3)Gal(b1-4)[Fuc(a1-3)]GlcNAc
Outline: as §1

[31] = target: Neu5Ac(a2-3)Gal(b1-3)[GlcNAc(b1-6)]GalNAc
Outline: as §1

[32] = target: Neu5Ac(a2-3)Gal(b1-3)[Neu5Ac(a2-6)]GalNAc
Outline: as §1

[33] = target: Neu5Ac(a2-3)Gal(b1-3)[Neu5Ac(a2-6)]GlcNAc(b1-3)[Fuc(a1-3)[Gal(b1-4)]GlcNAc(b1-6)]Gal(b1-4)Glc
Outline: as §1

B1: BTL (Bryothamnion triquetrum) (protein)
chain: ADPICGSSGYSCTTPAILTPKSPGSFPSGYSKVIVTGVGGSYSVYIHRPDGFKVYKASEGGCASFGSYSGGGNSEVGKYGSGGTVVAVACK
glycan array binding signal (z-score) [1]: -0.275 | glycan array binding signal (z-score) [2]: -0.244 | glycan array binding signal (z-score) [3]: -0.245 | glycan array binding signal (z-score) [4]: -0.309 | glycan array binding signal (z-score) [5]: -0.277 | glycan array binding signal (z-score) [6]: -0.284 | glycan array binding signal (z-score) (Man(a1-3)[Man(a1-6)]Man): -0.23 | glycan array binding signal (z-score) [7]: -0.158 | glycan array binding signal (z-score) [8]: -0.276 | glycan array binding signal (z-score) [9]: -0.155 | glycan array binding signal (z-score) [10]: -0.033 | glycan array binding signal (z-score) [11]: 4.2 | glycan array binding signal (z-score) (Man(a1-6)Man): -0.213 | glycan array binding signal (z-score) (Man(b1-4)GlcNAc): -0.22 | glycan array binding signal (z-score) (MurNAc(b1-4)GlcNAc): -0.26 | glycan array binding signal (z-score) (Neu5Ac(a2-3)Gal): -0.268 | glycan array binding signal (z-score) [12]: -0.232 | glycan array binding signal (z-score) [13]: -0.201 | glycan array binding signal (z-score) [14]: -0.251 | glycan array binding signal (z-score) [15]: -0.221 | glycan array binding signal (z-score) [16]: -0.229 | glycan array binding signal (z-score) [17]: -0.194 | glycan array binding signal (z-score) [18]: -0.235 | glycan array binding signal (z-score) [19]: -0.242 | glycan array binding signal (z-score) [20]: -0.191 | glycan array binding signal (z-score) [21]: -0.243 | glycan array binding signal (z-score) [22]: -0.099 | glycan array binding signal (z-score) [23]: -0.209 | glycan array binding signal (z-score) [24]: -0.194 | glycan array binding signal (z-score) [25]: -0.259 | glycan array binding signal (z-score) [26]: -0.212 | glycan array binding signal (z-score) [27]: -0.24 | glycan array binding signal (z-score) [28]: -0.252 | glycan array binding signal (z-score) [29]: -0.235 | glycan array binding signal (z-score) [30]: -0.21 | glycan array binding signal (z-score) [31]: -0.206 | glycan array binding signal (z-score) [32]: -0.132 | glycan array binding signal (z-score) [33]: -0.2
